Reference: PubChem BioAssay AID2101 (National Center for Advancing Translational Sciences (NCATS), 2009)
About 300 (0.091%) of roughly 330,000 compounds were called active. Inconclusive means that the source gave no clear call. Such entries were picked first, then a sample of the others. Calls follow the shape of the dose curve; as a rule, active = well fitted inhibition curve with a large enough effect; inconclusive = small, poorly fitted or top-dose-only effect, or effect the other way, or another doubt; inactive = no such curve, though single readings can be large or run the other way. Potencies of inconclusive entries are left out as doubtful fits.
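For activity change, negative = inhibition in this document: 0% = full enzyme activity and -100% = no enzyme basal.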
Potency is read from the fitted curve at half-maximal effect.

The molecules below were run against Lysosomal acid glucosylceramidase (Homo sapiens) (UniProt P04062) (assay: qHTS Assay for Inhibitors and Activators of N370S glucocerebrosidase as a Potential Chaperone Treatment of Gaucher Disease). Settings: N370S GC spleen homogenate, 4MU-glucoside fluorescence; activity change, negative = inhibition: at 59.4 µM (top of the series) unless noted.
In the case of CCc1nnc(NS(=O)(=O)c2ccc(NC(=O)/C=C/c3ccc(OC)cc3OC)cc2)s1, the Potency is reported as inconclusive [inhibitor, single point]. CC(C)(C)OC(=O)NNC(=O)NC12CC3CC(CC(C3)C1)C2 was tested, and the Potency was inconclusive [activator, single point]. C=CCOc1ccc(C(c2c(C(=O)O)[nH]c3ccccc23)c2c(C(=O)O)[nH]c3ccccc23)cc1 was tested, and the Potency was inconclusive [inhibitor, partial curve]. In the case of CC(=O)Nc1cccc(Nc2nc(-c3cccs3)nc3ccccc23)c1, the Potency is reported as inconclusive [inhibitor, full curve]. For CC1CCC2C(=O)OC(COc3ccc(C(C)(C)C)cc3)CN2C1c1ccc(Br)cc1 (stereo not drawn), the activity change, negative = inhibition was inactive: -0.109% [at 12.8 µM] [middle of 5 runs]. For CCN1C(C)=C(C(=O)OC)C(c2ccccc2)N2C(=O)[C@](O)(C(=O)OC)CC(C(C)=O)=C12 (stereo partly drawn), the activity change, negative = inhibition was inactive: -9.58% [at 12.8 µM]. With Cc1ccc(O)c(C(=O)c2cc(C#N)c(=O)n(-c3nccs3)c2)c1 the Potency was inconclusive [inhibitor, partial curve, poor fit]. With CCC(NC(=O)OCc1ccccc1)C(=O)Oc1ccc2ccc(=O)oc2c1 (stereo not drawn) the Potency was inconclusive [activator, partial curve]. O=C1NC[C@@H](Cc2ccc(O)cc2)N(CC2CCCCC2)C1=O was tested, and the Potency was inconclusive [inhibitor, partial curve]. With Cc1ccc(C)c2[nH]c(=O)c(CN(CCN3CCCC3)C(=O)Nc3cccc(Cl)c3)cc12 the Potency was inconclusive [inhibitor, single point]. For Cc1cc2ncn(CC(O)COC3CCCCC3)c2cc1C (stereo not drawn), the Potency was inconclusive [inhibitor, single point]. Cc1ccc(S(=O)(=O)c2c(N)n(Cc3ccco3)c3nc4ccccc4nc23)cc1C was tested, and the Potency was inconclusive [activator, partial curve]. With CC(C)c1ccc(NC(=O)[C@H](NC(=O)[C@@H]2Cc3ccccc3CN2)c2ccccc2)cc1 the Potency was inconclusive [inhibitor, single point]. For COCCn1c(SCC(=O)Nc2ccccc2OC)nc2c([nH]c3ccccc32)c1=O, the Potency was inconclusive [activator, partial curve]. For COCCN(C(=O)COC(=O)CCOc1cccc(C)c1)c1c(N)n(Cc2ccccc2)c(=O)[nH]c1=O, the Potency was inconclusive [activator, single point]. For CC(C)N1C(=O)/C(=C/c2nc3ccccc3c(=O)n2-c2ccccc2)c2ccccc21, the Potency was inconclusive [activator, partial curve]. With CCc1nc(Nc2ccc(OC)c(OC)c2)c2nnn(Cc3ccccc3Cl)c2n1 the Potency was inconclusive [activator, single point]. With O=c1c2ccccc2[nH]c2ccccc12 the Potency was inconclusive [activator, partial curve]. For CSc1ccc(C2C(C#N)=C(N)Oc3c2ccc(=O)c2c(C)oc(C)c32)cc1 (stereo not drawn), the Potency was inconclusive [inhibitor, single point]. COc1ccc(S(=O)(=O)Nc2cc(C)c(O)cc2C(C)C)cc1 was tested, and the Potency was “inactive”. In the case of O=C(N/N=C/c1ccc(-c2ccccc2Cl)o1)c1ccccc1, the Potency is reported as “inactive”. In the case of Cc1cccc(NC(=O)c2cnc3n(c2=O)CCS3)c1, the Potency is reported as inconclusive [activator, partial curve]. c1cncc(-c2nc(N3CCCCCC3)c3ccccc3n2)c1 was tested, and the Potency was inconclusive [activator, single point]. In the case of O=C(c1ccccc1Cl)N1N=C(c2cccs2)CC1c1cccc(O)c1 (stereo not drawn), the Potency is reported as inconclusive [activator, single point]. For CC(C)(C)C1CCc2onc(C(=O)NC3CCCC3)c2C1 (stereo not drawn), the Potency was inconclusive [activator, partial curve]. For O=C(CSc1nncs1)NCCCc1ccccc1, the Potency was “inactive”. With CCN1CCN(c2cc(C)c3cc(NC(=O)CCC(=O)Nc4ccc(OC)c(OC)c4)ccc3n2)CC1 the Potency was inconclusive [activator, single point]. In the case of O=C(c1cc2sccc2n1Cc1ccc(F)cc1)N1CCc2ccccc21, the Potency is reported as inconclusive [activator, partial curve]. With N#Cc1cnn2c3c(cnc12)C(=O)N1CCc2ccccc2C1C3 (stereo not drawn) the Potency was inconclusive [activator, partial curve]. For CCCOC(=O)c1[nH]c2c(c1C)C(=O)CC(c1cc(OC)c(OC)c(OC)c1)C2 (stereo not drawn), the Potency was inconclusive [activator, full curve, poor fit]. CCOC(=O)c1ccc(-c2ccc(C3Nc4ccccc4C(=O)N3O)o2)cc1 (stereo not drawn) was tested, and the Potency was inconclusive [activator, single point]. In the case of CN1CCN(CC(O)COC(c2ccc(Cl)cc2)c2ccc(Cl)cc2)CC1 (stereo not drawn), the Potency is reported as inconclusive [inhibitor, partial curve, poor fit]. For O=C(Nc1ccc2c(c1)OCO2)c1cncc(Br)c1, the Potency was “inactive”. With CC(=O)N1CCC2(CC1)CCN(c1ccc(-c3ccccc3)cc1)CC2 the Potency was “inactive”. In the case of O=C(NC1CCCC1)c1ccc2c(c1)N(Cc1ccc(F)cc1)CCS2, the Potency is reported as inconclusive [activator, partial curve]. With Cc1cc(C)c(NC(=O)C[N+](C)(C)CC(O)COc2cccc3ccccc23)c(C)c1 (stereo not drawn) the Potency was inconclusive [inhibitor, partial curve, poor fit]. With Cc1ccccc1C(=O)Nc1ccnn1C1CCN(CCCc2ccccc2)CC1 the Potency was inconclusive [activator, single point]. For COC(=O)c1ccccc1NC(=O)Oc1ccc(C(C)C)cc1, the Potency was “inactive”. For CCN(CC)c1cc(Cl)c2nonc2c1N, the Potency was “inactive”. COc1ccccc1-c1nnc(SCC(=O)Nc2nc(-c3ccccc3)cs2)n1C was tested, and the activity change, negative = inhibition was inconclusive: 39% [activator]. With CC1CCCC(C)N1CCCNC(=O)c1cc2c(s1)-c1ccccc1OC2 (stereo not drawn) the Potency was inconclusive [activator, partial curve]. With O=C(c1cc(-c2ccncc2)nc2ccccc12)N1CCN(c2ccccc2O)CC1 the Potency was inconclusive [inhibitor, single point]. In the case of COC(=O)c1ccccc1S(=O)(=O)N(Cc1cc2cc3c(cc2[nH]c1=O)OCO3)C1CCCCC1, the Potency is reported as inconclusive [activator, full curve]. In the case of CCN1CCN(c2nc3c(C)cccn3c(=O)c2/C=C(\C#N)C(=O)NC)CC1, the Potency is reported as inconclusive [activator, partial curve]. With CCOc1ccc(NC(=O)COc2nsnc2N2CCCCC2)cc1 the Potency was inconclusive [inhibitor, full curve, poor fit]. COc1ccccc1-c1nnc(C2CCN(S(=O)(=O)c3cccc([N+](=O)[O-])c3)CC2)o1 was tested, and the Potency was inconclusive [inhibitor, single point]. With O=C(CSC1=NS(=O)(=O)c2cc(F)ccc2N1)NCc1ccccc1 the Potency was “inactive”. CCOC(=O)[C@@H]1[C@H]2COc3ccc(Br)cc3[C@H]2N2C(=O)N(c3cccc(F)c3)C(=O)[C@]12C was tested, and the Potency was inconclusive [activator, partial curve]. With CCOc1ccc(/C=C/c2nc(C#N)c(NCCCN(C)C)o2)cc1 the Potency was inconclusive [activator, partial curve]. CN(C(=O)C12CC3CC(CC(C3)C1)C2)C1(C)CCS(=O)(=O)C1 (stereo not drawn) was tested, and the Potency was inconclusive [inhibitor, single point]. For c1sc2[n+](c1C13CC4CC(CC(C4)C1)C3)CCS2, the Potency was inconclusive [inhibitor, single point]. With COc1cc2ccccc2cc1C(=O)N(CCN(C)C)c1nc2ccc(C)cc2s1 the Potency was inconclusive [inhibitor, single point]. In the case of CCOc1ccc(NC(=O)CN2CCN(Cc3c(F)cccc3F)CC2)cc1, the Potency is reported as “inactive”. O=c1cc(-c2ccc(O)c(O)c2)oc2cccc(O)c12 was tested, and the Potency was inconclusive [inhibitor, partial curve]. With CN(C(=O)Cn1cnc2ccccc2c1=O)C1CCS(=O)(=O)C1 (stereo not drawn) the Potency was inconclusive [inhibitor, partial curve]. With CC(=O)c1ccc(-c2cccc(-c3nc4ccccn4c3NC3CCCCC3)c2)cc1 the Potency was inconclusive [inhibitor, partial curve]. O=C(O)c1cc(=O)c2ccccc2[nH]1 was tested, and the activity change, negative = inhibition was inconclusive: 35.2% [activator]. In the case of CN(Cc1ccccc1F)C(=O)c1ccc(NS(=O)(=O)c2ccc3[nH]c(=O)[nH]c3c2)cc1, the Potency is reported as inconclusive [inhibitor, partial curve]. CCC(CO)n1c(SCc2cc(=O)oc3cc(C)ccc23)nc2ccccc2c1=O (stereo not drawn) was tested, and the Potency was inconclusive [activator, partial curve]. In the case of Cc1ccc(SC[C@H](c2ccccc2)N2CCN(CCc3ccccc3)CCC2=O)cc1, the Potency is reported as inconclusive [inhibitor, single point]. With Cc1ccccc1Nc1nc(N)nc(CSc2nc3ccccc3c(=O)n2C)n1 the activity change, negative = inhibition was inconclusive: 34% [activator]. With CCOc1ccc(C(=O)NCCn2cc(SCC(=O)Nc3cc(C)on3)c3ccccc32)cc1 the Potency was inconclusive [inhibitor, single point]. For c1ccc(-c2c(-c3ccccc3)n(Cc3ccco3)c3ncnc(NCCCn4ccnc4)c23)cc1, the Potency was inconclusive [inhibitor, single point].
